The labels stand for the following.
B1: CPEB3 Ribozyme (parent)
chain: UAACAGGGGGCCACAGCAGAAGCGUUCACGUCGCAGCCCCUGUCAGAUUCUGGUGAAUCUGCGAAUUCUGCUGUAUAUCUC

Read counts are not given, so values of variants with three or more changes are uncertain.

This data set covers variants of B1. Put plainly: self-cleavage, relative activity (ratio to wild type); higher = more cleavage; in vitro, sequencing. The method, boiled down:
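Libraries of CPEB3 self-cleaving ribozyme mutants came from rounds of error-prone PCR and carried barcodes, which DNA sequencing matched to variants. In vitro transcription used T7 RNA polymerase at 37°C for 5 hours, with a further 15 min in DNase I before EDTA stopped the reaction; the ribozymes cleaved during both steps. The RNA was reverse transcribed with template switching and sequenced on Illumina. Relative activity is the cleaved/total read fraction of a variant divided by that of the unmutated ribozyme, averaged over three batches with at least 5 reads.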
As to UAACAGGGGGCCGCAGCAGAAGCGAUCACGUCGCAGCCCCUGUCAGAUUCUGGUGAAUCUGCGAAUUCUGCAGUAUAUCUU, the self-cleavage worked out at 0.02.

Consider UAACAGGGGGCCGCAGCAGAAGCGUUCACGUCGCAGCCCCUGUCAGAUUCUGGUGAAUCUGCAGAUUCUGCUGUAUAUCUC, for which the self-cleavage was 0.47. As for UAACAGGGGGCCGCAGCAGAAGCGUUCACGUCGCAGCCCCUGUUGGAUUCUGGUGAAUCUGCGAAUUCUGCUGUAUAUCUC, the self-cleavage came out at 0.2.

For UAACAGGGGGCCGCAGCAAAAGCGUUCGCGUCGCAGCCCCUGCCAGACUCUGGUGAAUCUGCGAAUCCUGCUGUAAAUCUC, the self-cleavage is 0.02. As for UAACAGGGGGCCGCAGCAUAAGCGCUCACGUCGCAGCCCCUGUCAGACUCCGGUGAAUCUGCGAAUUCUGCUGUAUAUCCC, the figure is 0.05; as for UAACAGGGGGCCGCAGCACAAGCGUUCACGUCGCAGCCCCUGUCAGAUUCUGGUGAAUCUGCGAAUUCUGCUGUAUGUCUC, 0.25. Take UAACAGGGGGCCGCAGCAGAAGCGUUCACGUCGCAGCCCCUGUCAGAUUCUGGUGAAUCUGUGAAUUCAGCUGUAUACCUC: the self-cleavage came out at 0.19. For UAACAGGGGGCCGCAGCAGAAGCGCUCGCGACGCAGCCCCUGUCAGAUUCUGGUGAAUCUGCGAAUUCUGCUGCAUAUCUC, the self-cleavage is 0.07. In the case of UAACAGGGGGCCGCAGCAGAAGCGUUCACGUCGCAGCCCCUGUCAGAUUAUGGUGAGUCUGCGAAUUCUGCCGUAUAUCUC, the self-cleavage worked out at 0.51. As for UAACAGGGGGCCGCAGCAGAAGCGUUCACGUCGCAGCCCCUGUCAGAUUAUGGCGAAUCUGCGAAUUCAGCUGUAUAUCUC, the figure is 0.13; as for UAACAGGGGGCCGCAGCAGAAGCAUUCACGUCGCGGCCCCUGUCUGACUCUGGUGAAUCUGCGAAUUCUGCUUUAUAUCUC, 0.07. As for UAACAGGGGGCCGCAGCAGAAGCAAUCACGUCGCAGCCCCUGUCAGUUUCUGGUGAAUCUGCGAAUUCUGCUGUAUAUCUC, the figure is 0.2; as for UAACAGGGGGCCGCAGCAGAAGCGUUCACGUCACAGCCCCUGUCAGAUUCUGGUGAAUCUGCGAAUUCUGCCGUAUAUCUC, 0.33; as for UAACAGGGGGCCGCAGCAGAAGCGCUCCCGUCGCAGUCCCUGUCAGAUUCUGGUGAAUCUGCGAAUUCUCCUGUAUACCUC, 0.08.

For UAACAGGGGGCCGCAGCAGAAGCGUUCACGUCGCAGCCCCUUUCAGAUUCUGGUGGAUCUGCGAAUUCUGCUGUAUAUCUC, the self-cleavage came out at 0.29.

Turning to UAACAGGGGGCCGCAGCAGAAGCGUUCACAUCGCGGCCCCUGUCAGAUUCUGGUGAAUCUGCGAAUUCUUCUGUAUAUCUC, the self-cleavage came to 0.06. Turning to UAACAGGGGGCCGCAGCAGAAGCGUUCACGUCCCAGCCCCUGUCAGAUUCUGGUGUAUCUGCGAAUUCAGCUGUAUACCUC, the self-cleavage amounted to 0.06. As for UAACAGGGGGCCGCAGCAGAAGCAUUCACGUAGCAGCCCCUGUCAGAUUCUGGUGAAUCUGCGAGCUCUGCUGUAUAUCUC, the figure is 0.07; as for UAACAGGGGGCCGCAACAGAAGCGUUCACGUCGCAGCCCCUGUCAGAUUCUGGUGAAUCUGCGAAUUCCGCAGUAUAUCUC, 0.09; as for UAACAGGGGGCCGCAGCAGAAGCGUUCACGUCGCAGCCCCUGUCAGAUUCUGGUGAAUCUGCGAAUUCUACUGUACAUCUG, 0.66.

Consider UAACAGGGGGCCGCAGCAGAAGCGAUCACGUCGCAGCCGCUGUCAGAUUCUGGUGAAUCUGCGAAUUCUGCUGGAUAUCUC, for which the self-cleavage was 0.31. As for UAACAGGGGGCCGCAGCAGAAGCGUUCACGUCGCAGCCCCUGUCAAAUCCUGGUGAAUCCGCGAAUUCUGCUGUUUAUCUC, the figure is 0.1. As for UAACAGGGGGCCGCAGCACGAGCGUUCACGUCGCAGCCCCUGUCAGAUUCCGGUGAAUCUGCGAAUUCUGCCGUACCUCUC, the figure is 0.14. With UAACAGGGGGCCGCAUCAGAAGCAUUCUCGUCGCAGCCCCUGUCAGAUUCUGGUGAAUCUGCGAAUUCUGCUGUAUAUCUC, the self-cleavage came to 0.6. Consider UAACAGGGGGCCGCAGCAGAAGCGAUCACGUCGCAGCCCCUGCCAGAUUCUGGUGAAUCCGCGAAUUCCGCUGUAUACCUC, for which the self-cleavage stood at 0.08. Consider UAACAGGGGGCCGCAGCAGAAGCGAUCACGUCGCAGCCCCUGUCAGAUUCUGGUGAAUCUGCGAAUUCUGCUCUAUACCUC, for which the self-cleavage turned out to be 0.25. As for UAACAGGGGGCCGCAGCAGAAGCAUUCACGUCGCAGCCCCUGCCAGAUUCUGGUGAAUCUGCGAGACCUGCUGUAUAUCUC, the figure is 0.04; as for UAACAGGGGGCCGCAGCAGAAGCGUUCACGUCGCAGCCCCUGUCAGAUUCUGCCGAAUCUGCGAAUUCUGCUGUAUAACUC, 1.13. As for UAACAGGGGGCCGCAGCAGAAGCGUUCACUUCGCAGCCCCUGUCAGUUUCUGGUGAAUCUGCGAAUUCUGCUGUAUAUCUC, the figure is 0.14. As to UAACAGGGGGCCGCAGCAAAAGCGCUCACGUCGCAGCCCCUGUCAGAUUCUGGUGAAUCUGCGAAUUCCGCUGUAUAUCUC, the self-cleavage is 0.05. As for UAACAGGGGGCCGCAGCAGAAGCGUUCACGUCGCAGCCCCUGUCAGAUUCUCGUGAAUCUGCGAAUUCUGCUGUAUACCCC, the figure is 0.79. With UAACAGGGGGCCGCAGCAGAAGCGUUCACGUCGCAGCCCCUGUCAGAUUCUGAUGAAUCAGCGAAUUCAGCUGUACAUCUC, the self-cleavage turned out to be 0.19. As for UAACAGGGGGCCGCAGCAGAAGCGAUCACGUCGCAGCCCCUGUCUGAUUCUGGUGAAUCUGCGAAUUCUGCUGUAUAUCUC, the figure is 0.49; as for UAACAGGGGGCCGCAGCAUAAGCGUUCACGUCGCAGCCCCUGUCAGAUUCUGGUGGAUCUGCGAAUUCUGCUGUAUAUCUC, 0.21.

(Values after the RNAGym collection of RNA variant scans (doi:10.1093/nar/gkz1192).)
